One may read the % Inhibition as the relative decrease from the control value, in per cent.

Structures are written as SMILES. About 540 (0.36%) of roughly 150,000 compounds showed an effect of 50% or more. This is one part of the list.

The experiment has as its system Plasmodium falciparum. As to the kind of experiment: Primary screen in NF54 nanoGlo assay, in single point, at 2uM, 72h; a lower Z score goes with more inhibition. Type of experiment: functional, Erythrocyte. The note with it: timepoint 72 hour.
As to `COc1ccc(Cl)cc1S(=O)(=O)N(C1CCCCC1)C1CCCCC1`, the “% Inhibition” value was -9% and the Z score is 1.73.
The like results for `Cc1ccc(-c2ccc(C(=O)Nc3cccnc3)o2)cc1Cl` were, in that order, -2% and 0.25.
As for `Nc1c(Cl)ccc(Br)c1F`, the “% Inhibition” value is -7% and the Z score came to 0.91.
The like results for `Cc1nn(C)c(C)c1CCC(=O)N(C)C[C@@H]1OCCc2sccc21` were, in that order, -13% and 1.57.
Turning to `CC1(C)CC(=O)NCCN1Cc1cnn(-c2ccccc2)n1`, the “% Inhibition” value is on record as -12% and the Z score was 2.35.
For `CCN1C(=O)[C@](C)(C(=O)Nc2cc(OC)ccc2OC)Oc2cccnc21`, the “% Inhibition” value is given as -4% and the Z score turned out to be 0.74.
The like results for `COCCN(CC(=O)N1CCc2sccc2[C@@H]1COc1ccc(C(C)C)cc1)C(=O)Nc1ccc(C)cc1` were, in that order, -6% and 0.64.
Turning to `COCCn1nc([C@@H]2CCCCN2C(=O)c2ccn(C)n2)c2c1CCOC2`, the “% Inhibition” value is given as -13% and the Z score is 1.24.
As for `C[C@@H](CCNC(=O)c1ccc(-c2nc(CCN(C)C(=O)c3ccc(F)cc3)no2)cc1)N1CCCC1`, the “% Inhibition” value is given as -23% and the Z score amounted to 2.08.
With `Cc1nn(-c2ccc(F)cc2)c2c1c(=O)c(C(=O)NCCC(C)C)cn2C`, the “% Inhibition” value is -3% and the Z score stood at 0.39.
For the molecule `O=C(N[C@H]1CCOC2(CCC2)C1)c1ccc2c(c1)S(=O)(=O)Nc1ncnn1-2`, the “% Inhibition” value is 0% and the Z score is given as -0.03.
The like results for `COc1cc(CCNS(=O)(=O)N2CCN(C)CC2)ccc1C` were, in that order, -7% and 0.8.
Turning to `Cc1nc2ccnn2cc1C(=O)N1CCOCC12CCC2`, the “% Inhibition” value amounted to 4% and the Z score is -0.74.
In the case of `O=C(Nc1ccc2oc(-c3ccc4ccccc4c3)nc2c1)c1ccccc1F`, the “% Inhibition” value is listed as -11% and the Z score worked out at 1.64.
`COc1ccc(-c2ccnc3cc(C(=O)Nc4ccc(C(C)C)cc4)nn23)cc1OC`: the “% Inhibition” value came out at 1% and the Z score is -0.09.
The like results for `CC(C)CC(CCO)CNC(=O)N1CC2CC=CCC2C1` (stereo not given) were, in that order, -3% and 0.37.
The like results for `CN(C)C(=O)[C@@H]1CCCN1c1cccc(F)c1C#N` were, in that order, -11% and 1.57.
The like results for `O=C(NCc1cccnc1)C1C2C(=O)N(CCc3ccccc3)C[C@@]23C=C[C@@H]1O3` (stereo not given in full) were, in that order, -7% and 0.85.
In the case of `C#CCCN1CCN(C(=O)c2ccc3c(c2)COCO3)CC1`, the “% Inhibition” value is listed as -4% and the Z score is given as 0.45.
The like results for `COCc1nc2n(n1)CCCC2NCC(C)c1ccc(F)cc1` (stereo not given) were, in that order, -15% and 1.65.
`CCC(CC)[C@H](NC(=O)c1cc(OC)c(S(N)(=O)=O)s1)c1ccccc1`: the “% Inhibition” value is -10% and the Z score is reported as 1.36.
Consider `CNS(=O)(=O)[C@H]1CCCN(Cc2nn(C)cc2C)C1`, for which the “% Inhibition” value is reported as -7% and the Z score stood at 1.35.
`CS(=O)(=O)C1(CNC(=O)c2c(F)ccc(O)c2F)CC1`: the “% Inhibition” value is -5% and the Z score is 0.8.
The like results for `C#CCNC(=O)CNC(=O)c1cc(C)c(F)c(C)c1` were, in that order, 0% and -0.09.
In the case of `COc1ccc(S(=O)(=O)Nc2ccc(N3CCCCC3=O)c(C)c2)cc1`, the “% Inhibition” value is recorded as -16% and the Z score is 2.51.
The like results for `Cc1n[nH]c(C)c1CNC(=O)C[C@@H]1OCCc2sccc21` were, in that order, -5% and 0.81.
The like results for `CCc1ccccc1-n1nc(-c2ccc(OC)cc2)cc1-c1ccc(OC)cc1` were, in that order, -10% and 1.56.
The like results for `C=CCn1cc(CN(C)Cc2nc(CC(C)C)no2)c(C)n1` were, in that order, -14% and 2.66.
Regarding `COc1cc(C)ccc1S(=O)(=O)N1CCCN(Cc2ccncc2)CC1`, the “% Inhibition” value is -11% and the Z score was found to be 1.3.
For `COc1ccc(OC)c([C@H]2CC(=O)Nc3c2cnn3Cc2ccco2)c1`, the “% Inhibition” value stood at 6% and the Z score was -0.79.
The like results for `CC(C)Cc1cc(C(=O)N[C@H](CO)C(C)C)c2ccccc2n1` were, in that order, -6% and 0.77.
The like results for `Cc1nc(CN(C)[C@@H](C)c2cccs2)n(C)c1C` were, in that order, 11% and -1.52.
Turning to `CC(C)CN(CC(=O)Nc1nc(CC(=O)NCc2ccccc2)cs1)C(=O)C1CCCCC1`, the “% Inhibition” value was 4% and the Z score is given as -0.66.
The like results for `Cc1cscc1NC(=O)N1CCC[C@H](c2ccn(C)n2)C1` were, in that order, 3% and -0.59.
The like results for `O=C(Nc1cccc(-c2nnco2)c1)N1CCC12CCC2` were, in that order, -6% and 0.59.
The like results for `O=C(N[C@@H]1[C@H]2CCO[C@H]2[C@H]1Cc1ccccc1)c1ccc[nH]1` were, in that order, -11% and 1.1.
Take `CCOc1ccccc1[C@H](CC(=O)NCCCCNC(=O)OC(C)(C)C)NC(C)=O`: the “% Inhibition” value turned out to be 0% and the Z score stood at 0.
The like results for `CCOC(=O)N1CCC(Nc2nc3c(s2)c(C)nn3C)CC1` were, in that order, -4% and 0.61.
The like results for `COc1cc(C(=O)N[C@@H](CCO)C2CCOCC2)on1` were, in that order, -22% and 4.43.
Take `CC1COC(c2cccc(Cl)c2)CN1C(=O)Cn1cnnn1` (stereo not given): the “% Inhibition” value is listed as 6% and the Z score is -1.13.
The like results for `O=C(NCc1ccco1)C(=O)N1CCCC1` were, in that order, -6% and 0.88.
The like results for `CC(C)[C@H](Oc1ccc(F)cc1F)C(=O)NS(=O)(=O)c1cccnc1` were, in that order, -4% and 0.69.
The like results for `O=c1[nH]c(N2C[C@H](CO)C[C@H](CO)C2)nc2c1Cc1ccccc1OC2` were, in that order, -12% and 2.02.
`CN(Cc1cscn1)c1ccnc(CO)c1`: the “% Inhibition” value is 22% and the Z score was -2.8.
Regarding `CC1=C(C(=O)N2CCOCC2)[C@H](c2ccc(OCc3ccccc3)cc2)n2ncnc2N1`, the “% Inhibition” value came to 31% and the Z score is recorded as -3.51.
The like results for `COc1c[nH]c(C(=O)Nc2ccc(-n3cnnn3)cc2)cc1=O` were, in that order, -4% and 0.47.
The like results for `COc1ccc(C(=O)Nc2cccc(C(C)(C)C)c2O)nn1` were, in that order, -4% and 0.64.
Take `CC(C)Cc1nc(N2CCCC2)c(C#N)c2c1COC(C)(C)C2`: the “% Inhibition” value is recorded as -11% and the Z score was found to be 1.34.
The like results for `CC(C)S(=O)(=O)[C@@H](C)C(=O)Nc1ccc2[nH]c(C3CCC3)nc2c1` were, in that order, 0% and 0.03.
For `CO[C@H]1CN(C)C[C@@H]1NC(=O)C(=O)c1ccccc1`, the “% Inhibition” value is reported as -10% and the Z score is 1.57.
The like results for `Cc1ccc(NC(=O)c2sc(-c3cccs3)nc2C)c(Cl)c1` were, in that order, -14% and 1.73.
In the case of `Cc1ccc(C(=O)N[C@H]2CCS(=O)(=O)C(C)(C)C2)c2c1CCC2`, the “% Inhibition” value was found to be 10% and the Z score was -1.91.
With `C[C@@H]1CN(S(=O)(=O)c2cccc(C(=O)NCC3CCOCC3)c2)CCN1`, the “% Inhibition” value is reported as -2% and the Z score came to 0.35.
The like results for `COCC(=O)Nc1ccc2c(c1)CN(C(=O)c1cc(C)nn1C)CCO2` were, in that order, -4% and 0.86.
For the molecule `CC(C)CC(CCO)CNC(=O)N1CCOCC1C` (stereo not given), the “% Inhibition” value is recorded as -19% and the Z score is reported as 2.4.
Regarding `N#C[C@]1(NC(=O)c2ccc3c(c2)CCCCC3=O)CCc2ccccc2C1`, the “% Inhibition” value is listed as -14% and the Z score amounted to 1.76.
In the case of `Cc1cc(Cl)ccc1-c1ccc2nc(-c3ccc(Cl)cc3)c(CN3CCN(S(=O)(=O)c4ccc(F)cc4)CC3)n2c1`, the “% Inhibition” value was -5% and the Z score was 0.46.
With `COCCOCCc1nc(C(=O)NCCc2ccsc2)c[nH]1`, the “% Inhibition” value was -9% and the Z score is 1.08.
Take `COCC1(c2nc(-c3ccc(OC(F)F)c(OC)c3)no2)CCC1`: the “% Inhibition” value stood at 9% and the Z score is on record as -1.6.
The like results for `Cc1noc(COc2ccc(C(=O)N(C)[C@@H](C)c3nc(C)no3)cn2)n1` were, in that order, 0% and 0.01.
On to `O[C@@H](CNCc1ccc(C2CC2)cc1F)c1ccccn1`, for which the “% Inhibition” value is -18% and the Z score is 1.62.
The like results for `CCc1c2c(nc3ccccc13)CCS2(=O)=O` were, in that order, -13% and 2.35.
As to `C[C@H]1CN(C(=O)Nc2ccc(OCc3cccnc3)cc2)CCO1`, the “% Inhibition” value is -10% and the Z score was found to be 1.13.
The like results for `CN1CCC2(CC1)CCN(C(=O)Cc1ccc3c(c1)COC3)C2` were, in that order, -6% and 0.72.
The like results for `COc1cccc(N2CCN(c3cc([C@H]4C[C@@H](N)C4)ncn3)CC2(C)C)c1` were, in that order, -9% and 1.39.
The like results for `CC(C)N1C2CCC1CN(Cc1ccc(C(=O)O)cc1)CC2` (stereo not given) were, in that order, -2% and 0.38.
In the case of `CC1CCC(N(Cc2nnc(C3CCC3)o2)C2CCC(O)CC2)CC1` (stereo not given), the “% Inhibition” value came out at 1% and the Z score is recorded as -0.07.
Consider `CC1(C)COCCN1C(=O)COCC(=O)N1CCOCC1(C)C`, for which the “% Inhibition” value was -3% and the Z score is reported as 0.62.
The like results for `Cc1ocnc1C(=O)N(CCN(C)C)C1CCCCC1` were, in that order, -8% and 0.77.
Turning to `O=C(c1cccs1)N1CCC[C@H](Oc2cnccn2)C1`, the “% Inhibition” value is -11% and the Z score was 1.86.
Regarding `CCn1cc(CN2C[C@@H](Oc3ccccc3)C[C@H]2C(N)=O)c(C)n1`, the “% Inhibition” value was -10% and the Z score is 1.54.
The like results for `CC(C)(C)c1ccc(C(=O)N2CCOC[C@](O)(CN3CCCC3)C2)cc1` were, in that order, 6% and -0.85.
Turning to `CCc1ccccc1C(=O)N1CCC(N2CCCOCC2)CC1`, the “% Inhibition” value was -1% and the Z score was found to be 0.08.
For `COCC(=O)NC[C@@H]1C[C@H](F)CN1C(=O)CCc1nc2ccccc2s1`, the “% Inhibition” value is reported as -5% and the Z score was determined as 0.91.
The like results for `CCOC(=O)c1sc(Nc2cnn(C)c2C)nc1C` were, in that order, 26% and -3.46.
The like results for `COc1ccc(CNC(=O)c2c(O)n3c4c(cccc4c2=O)CCC3)cc1OC` were, in that order, -10% and 0.87.
The like results for `CC1CCC(N2CCC(N(C)C(=O)Nc3cccc4ccccc34)CC2)CC1` (stereo not given) were, in that order, 16% and -2.07.
Regarding `O=C(NCc1ccccc1Cl)c1nnc(-c2ccccc2)o1`, the “% Inhibition” value was -11% and the Z score was 1.65.
With `C#CCCC1(CCC(=O)N2CC(n3cccn3)C2)N=N1`, the “% Inhibition” value is -11% and the Z score was determined as 1.31.
Turning to `CCCC[C@@H](C(=O)Nc1cc(C)on1)N1CCN(c2ncccn2)CC1`, the “% Inhibition” value stood at 2% and the Z score is -0.3.
As for `COc1cc2c(cc1CNC(=O)c1ncoc1C)OCCO2`, the “% Inhibition” value is on record as -8% and the Z score worked out at 1.31.
Take `O=C(Nc1cccc(Cn2ccnc2)c1)c1sccc1S(=O)(=O)N1CCOCC1`: the “% Inhibition” value is 11% and the Z score is recorded as -1.52.
The like results for `Cc1c(NC(=O)CCCn2cncn2)cccc1-c1nncn1C` were, in that order, -18% and 1.82.
As to `CC[C@@H](CNS(C)(=O)=O)NC(=O)c1ccc(C)c2c1CCC2`, the “% Inhibition” value is on record as 25% and the Z score was -2.88.
The like results for `Cc1cccc(-n2nc3nc(NCCN4CCCCC4)nc(-c4ccccc4)c3c2N)c1` were, in that order, -3% and 0.26.

For the origin of these results see ChEMBL document CHEMBL4888484, “Replenishing the malaria drug discovery pipeline: Screening and hit evaluation of the MMV Hit Generation Library 1 (HGL1) against asexual blood stage Plasmodium falciparum ,using a nano luciferase reporter read-out” (2022).
